Test system: Raw 264.7 cells
Test: AACT/SILAC pulse-labeling translatome: protein turnover rates
Assay type: cell-based, mouse
Procedure: G9a KO, control and (1 μM) UNC0642 treated control cells were either untreated (N) or treated with low dose (100 ng/ml) LPS to induce endotoxin tolerance. The cells were washed with PBS twice to remove light medium (KORO), and then switched to heavy AACT DMEM medium containing stable isotope-enriched D4-lysine and ^13C6-arginine to label newly synthesized proteins. The cells were harvested at 2 h, 4 h, 8 h, 24 h, 48 h, and 72 h, and lysed in 8 M urea containing 50 mM Tris-HCl pH 8.0. One hundred micrograms protein from each condition was digested with trypsin, desalted, and fractionated with C18 material (High pH) into eight fractions followed by LC-MS/MS analysis.
To correct for errors introduced during sample-preparation/data-acquisition, protein intensities were normalized based on the premise that the sum of KO/RO (M) and the K4/R6 (H) intensities should be constant across different time-points. After normalization, curves for estimation of turnover rates, determined from the kinetics of AACT label incorporation or loss, were fitted based on the assumption of exponential protein degradation (or synthesis) and constant offset (γ).
Proteins identified in at-least 4 out of 6 time points were selected for curve fitting using the model described above. […]

## COc1cc2c(NC3CCN(C(C)C)CC3)nc(N3CCC(F)(F)CC3)nc2cc1OCCCN1CCCC1 [UNC0642]
T (endotoxin tolerance) condition, 1 μM, wild type range in T starts at 24.8 h, FIG. 4C
  median protein half-life (global protein turnover): 26.9 h
macrophages, 1 μM UNC0642
  synthesis or turnover of G9a-translated proteins: decreased

Reference: patent US20230414619A1 (priority 2020, published 2023)
